Measurements from PubChem BioAssay AID588342 (National Center for Advancing Translational Sciences (NCATS), 2011).
Screen size: about 360,000 compounds; about 25,000 (6.9%) were called active. Inconclusive means that the source gave no clear call. Such entries were picked first, then a sample of the others. Calls follow the shape of the dose curve; as a rule, active = well fitted inhibition curve with a large enough effect; inconclusive = small, poorly fitted or top-dose-only effect; inactive = flat fitted curve, though single readings scatter. A potency beside an inconclusive call is a rough fit, not a confirmed value.

Molecular target: Luciferin 4-monooxygenase (Photinus pyralis) (UniProt P08659)
Sequence of UniProt P08659 (P08659 whole entry, looked up): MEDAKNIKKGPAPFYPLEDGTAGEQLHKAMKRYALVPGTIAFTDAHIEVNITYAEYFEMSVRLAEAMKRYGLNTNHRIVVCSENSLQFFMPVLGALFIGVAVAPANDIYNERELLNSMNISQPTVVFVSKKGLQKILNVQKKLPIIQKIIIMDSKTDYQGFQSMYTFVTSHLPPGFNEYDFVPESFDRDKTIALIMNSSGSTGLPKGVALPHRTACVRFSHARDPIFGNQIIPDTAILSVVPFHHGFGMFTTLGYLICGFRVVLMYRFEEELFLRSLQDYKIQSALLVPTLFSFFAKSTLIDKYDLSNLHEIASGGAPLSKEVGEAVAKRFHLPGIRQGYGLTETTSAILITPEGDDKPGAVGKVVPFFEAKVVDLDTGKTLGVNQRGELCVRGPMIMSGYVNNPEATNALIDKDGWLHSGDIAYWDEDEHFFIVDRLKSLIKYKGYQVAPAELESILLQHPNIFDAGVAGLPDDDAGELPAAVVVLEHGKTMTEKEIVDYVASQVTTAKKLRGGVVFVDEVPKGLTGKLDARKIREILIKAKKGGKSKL
Assay: qHTS profiling assay for firefly luciferase inhibitor/activator using purifed enzyme and Km concentrations of substrates (counterscreen for miR-21 project); also: nearly all actives have a fitted effect of over 55% in size;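 as to activity change, negative = inhibition: plate controls were vehicle for no effect and reference inhibitor for full effect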
Conditions: purified FLuc, luminescence inhibition; series mostly up to 57.5 µM; activity change, negative = inhibition: at the top concentration
Outline: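 Purified P. pyralis luciferase, 10 nM final, with Km-level 10 uM D-luciferin and 10 uM ATP in 50 mM Tris acetate pH 7.5, 10 mM Mg acetate, 0.01% Tween-20, 0.05% BSA; 6-point qHTS titration about 60 µM downward; luminescence read.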
Potency is read from the fitted curve at half-maximal effect; tags tell the direction and shape of the fitted curve.

Structure (SMILES) | Potency | activity change, negative = inhibition
CC1=CCC(C(=O)O)C(C(=O)Nc2ccc(-c3nc4ccc(C)cc4s3)cc2)C1 (stereo unspecified) | active: 3.38 µM | –
Cc1ccc(-n2cccc2/C=C2\C(=N)N3N=C(c4ccco4)SC3=NC2=O)cc1 | inconclusive: 30.1 µM [inhibitor, partial curve, poor fit] | –
Cc1nc2ccccn2c1C(=O)NC1CCCc2ccccc21 (stereo unspecified) | – | inactive: -2.13%
COc1ccc(C(=O)COC(=O)C(Cc2c[nH]c3ccccc23)NC(=O)c2ccc(C(C)(C)C)cc2)cc1 (stereo unspecified) | – | inactive: -5.29%
Cc1ccc(NC(=O)c2ccc(CSc3nnc(C)s3)cc2)c(C)c1 | active: 13.5 µM | –
CN=c1scc(C)n1/N=C/c1ccc2c(c1)OCO2 | active: 1.35 µM | –
CCOC(=O)c1sc(NC(=S)NC(=O)c2ccccc2)nc1C | inconclusive: 9.53 µM [inhibitor, partial curve] | –
Cc1cc(C)cc(OC(C)C(=O)Nc2c(C(=O)c3ccccc3)oc3ccccc23)c1 (stereo unspecified) | – | inactive: 0.45%
Cc1ccc(Nc2nc(N)c([N+](=O)[O-])c(NCCO)n2)cc1C | active: 15.1 µM | –
COCCn1c(C)cc(C(=O)COC(=O)c2cncc(Br)c2)c1C | active: 7.57 µM | –
CCC(C)c1ccc(NC(=O)c2cccs2)cc1 (stereo unspecified) | active: 0.675 µM | –
CCN(C(=O)CSc1nc(-c2ccc(C(C)C)cc2)no1)c1cccc(C)c1 | inconclusive: 6.75 µM [inhibitor, partial curve] | –
Cc1ccc(NC(=O)Cn2ncc(Cl)c(Cl)c2=O)cc1S(=O)(=O)N1CCCCC1 | – | inactive: -7.24%
COc1ccc(OC)c(NS(=O)(=O)c2ccc(-c3cc(C)no3)s2)c1 | inconclusive: 26.9 µM [inhibitor, partial curve, poor fit] | –
O=[N+]([O-])c1ccc(S(=O)(=O)Nc2ccccn2)cc1 | – | inactive: -0.124%
Cc1cccc(C(=O)Nc2nnc(S(=O)(=O)N(C)c3ccccc3C)s2)c1 | inconclusive: 23.9 µM [inhibitor, partial curve, poor fit] | –
Cc1ccnc(-n2sc3ccccc3c2=O)n1 | active: 9.53 µM | –
COc1ccc(CN(C)C(=O)CCCNC(=O)c2ccc(Cl)cc2)cc1 | – | inactive: 0.74%
CN(C)CCn1c(SCc2ccccc2C#N)nc2c(sc3ccccc32)c1=O | inconclusive: 37.9 µM [inhibitor, partial curve, poor fit] | –
O=C(O)C1CC(=O)N(c2ccc(OCc3ccccc3Cl)cc2)C1 (stereo unspecified) | inconclusive: 23.9 µM [inhibitor, single point] | –
CC1CCN(C(=O)COC(=O)c2ccc3c(c2)OCO3)CC1 | active: 16.9 µM | –
CCOc1ccc(N2Cc3ccccc3C2)cc1 | active: 12 µM | –
OCCCNc1nc(-c2ccccc2)nc2c1oc1ccccc12 | inconclusive: 19 µM [inhibitor, partial curve] | –
CC(C)CCOc1cccc(OCC(=O)O)c1 | inconclusive: 23.9 µM [inhibitor, partial curve] | –
Cc1ccc(OC(=O)N2CCOCC2)cc1 | inconclusive: 37.9 µM [inhibitor, single point] | –
O=C(c1ccccc1)c1sc(N2CCCCCC2)nc1-c1ccccc1 | inconclusive: 33.8 µM [inhibitor, partial curve, poor fit] | –

Structure (SMILES) | Potency | activity change, negative = inhibition
Cc1nnc(N/N=C/c2ccc(-c3ccc(Br)cc3)o2)n1N | inconclusive: 37.9 µM [inhibitor, partial curve, poor fit] | –
O=S(=O)(Cc1ccccc1)Nc1ccc(S(=O)(=O)N2CCCC2)cc1 | – | inactive: 3.79%
COc1cc(-c2ccccc2)nc(N)n1 | inconclusive: 16.9 µM [inhibitor, partial curve] | –
CC(C)(C)NC(=O)CN(C(=O)CS(=O)CC(=O)Nc1ccc(F)cc1)c1ccccc1 (stereo unspecified) | – | inactive: 3.79%
COc1ccc(CNC(=O)C2CCN(S(=O)(=O)c3ccc4c(c3)CC(C)N4C(=O)C3CC3)CC2)cc1 (stereo unspecified) | – | inactive: 1.2%
CC(C)(CC(=O)O)CC(=O)N1CCCN(c2nc3ccc(Cl)cc3s2)CC1 | inconclusive: 19 µM [inhibitor, partial curve] | –
O=C(Nc1nnc(Cc2ccc(Cl)cc2)s1)C1CCCO1 (stereo unspecified) | inconclusive: 37.9 µM [inhibitor, partial curve, poor fit] | –
CCOc1ccc(CN2C(=O)c3ccccc3Sc3ccc(C(=O)O)cc32)cc1 | inconclusive: 13.5 µM [inhibitor, partial curve] | –
O=C(NCCc1ccc(Cl)cc1)C(=O)NCC(c1ccco1)S(=O)(=O)c1ccc(Cl)cc1 (stereo unspecified) | – | inactive: -0.609%
Cc1ccc(OCC(=O)OCC(=O)c2ccccc2)cc1C | inconclusive: 37.9 µM [inhibitor, single point] | –
Cc1ccnc(NC(=O)c2ccc(OCC3CCCO3)cc2)c1 (stereo unspecified) | active: 0.953 µM | –
CCCN1CCN(C(=O)CCc2nnc3ccc(N4CCN(c5cccc(OC)c5)CC4)nn23)CC1 | – | inactive: 1.31%
CC(CC(=O)Nc1ccc2c(c1)OCCO2)c1ccccc1 (stereo unspecified) | inconclusive: 23.9 µM [inhibitor, single point] | –
CC(=O)Nc1ccc(NC(=O)CSc2nnc(NC(=O)C3CC(=O)N(c4ccc(F)cc4)C3)s2)cc1 (stereo unspecified) | – | inactive: -1.83%
Cn1cnnc1SCC(=O)c1ccc(O)c(O)c1 | – | inactive: -2.31%
Cc1ccc(-c2nc3cnccn3c2Nc2ccc3c(c2)OCO3)cc1 | inconclusive: 26.9 µM [inhibitor, partial curve, poor fit] | –
CCc1c(C)[nH]c(C(=O)OCc2ccccc2)c1C | inconclusive: 37.9 µM [inhibitor, single point] | –
COC(=O)CNC(=O)COC(=O)/C=C/c1ccccc1[N+](=O)[O-] | – | inactive: -6.99%
Cc1cc(OCCCC(=O)Nc2cccc(-n3cnnn3)c2)ccc1Cl | – | inactive: -4.72%
O=C(/C=C/Nc1ccccc1Br)c1ccccn1 | active: 0.0757 µM | –
COc1ccc(N(CC(=O)Nc2cc(Cl)ccc2C)S(=O)(=O)c2c(C)n[nH]c2C)cc1 | – | inactive: 2.75%
CCCn1nc(C(=O)N2CCc3ccccc32)c2ccccc2c1=O | – | inactive: 4.18%
Cc1ccc(Cl)cc1NC(=O)c1oc2ccc(S(=O)(=O)N3CCCCC3)cc2c1C | – | inactive: -3.15%
COc1ccc(N(Cc2cccs2)C(=O)c2ccc(OCC(C)C)cc2)cc1 | inconclusive: 15.1 µM [inhibitor, partial curve, poor fit] | –
COc1cc(C2c3c(oc4ccccc4c3=O)C(=O)N2c2ccccn2)cc(OC)c1OC (stereo unspecified) | – | inactive: -3.92%
Cc1ccc(C)c(C(=O)COc2ncnc3ccccc23)c1 | inconclusive: 37.9 µM [inhibitor, partial curve, poor fit] | –

Structure (SMILES) | Potency | activity change, negative = inhibition
O=C(CSc1ncccc1-c1nc2ccccc2[nH]1)N1CCN(c2ccccc2F)CC1 | active: 19 µM | –
COc1cccc(C2CC(=O)N(c3ccc(F)cc3)C3=C2C(=O)OC3)c1OC (stereo unspecified) | – | inactive: 1.52%
COc1ccc(-c2nnc(N(C)C(=O)c3ccno3)s2)cc1 | active: 10.7 µM | –
CN1CCN(S(=O)(=O)c2cccc(C(=O)Nc3sccc3C#N)c2)CC1 | – | inactive: -0.762%
COc1ccccc1C(=O)Nc1nnc(-c2ccccc2)s1 | active: 13.5 µM | –
COc1cc(NC(=O)Nc2cccc(-c3noc(C)n3)c2)cc(OC)c1OC | inconclusive: 19 µM [inhibitor, single point] | –
COc1cc(/C=N/NS(=O)(=O)c2ccc(C(C)(C)C)cc2)cc([N+](=O)[O-])c1O | inconclusive: 37.9 µM [inhibitor, partial curve, poor fit] | –
O=c1[nH]c2ccccc2nc1/C=C(\O)c1cccs1 | inconclusive: 1.07 µM [inhibitor, full curve] | –
C=CCn1cccc(C(=O)Nc2ccc(OC)cc2)c1=O | inconclusive: 26.9 µM [inhibitor, single point] | –
COc1ccccc1Nc1nnc(SCC(=O)c2cc(C)n(CC3CCCO3)c2C)s1 (stereo unspecified) | inconclusive: 19 µM [inhibitor, partial curve, poor fit] | –
O=C(CNS(=O)(=O)/C=C/c1ccccc1)OCC(=O)N1CCC(Cc2ccccc2)CC1 | – | inactive: -0.038%
CC(C)Oc1ccc(C2CC(=O)N(c3ccccc3)C2=O)cc1 (stereo unspecified) | inconclusive: 19 µM [inhibitor, partial curve] | –
COc1cccc(Nc2cc(C)nc3nc(-c4ccc(Cl)cc4)nn23)c1 | – | inactive: -0.715%
O=C(NNC(=O)c1cccc(-n2cccc2)c1)c1ccccc1 | inconclusive: 26.9 µM [inhibitor, single point] | –
CCC(C(=O)O/N=C(\N)c1ccccc1)c1ccccc1 (stereo unspecified) | inconclusive: 23.9 µM [inhibitor, partial curve, poor fit] | –
CCOC(=O)COc1ccccc1C1C(C(=O)OC)=C(C)NC2=C1C(=O)c1ccccc12 (stereo unspecified) | inconclusive: 30.1 µM [inhibitor, partial curve, poor fit] | –
Cc1nc2c(c(C)c1CCC(=O)NCc1ccccc1)c(=O)n(C)c(=O)n2C | – | inactive: 1.81%
CC(=O)c1cccc(NC(=O)c2ccc(N(C)S(C)(=O)=O)cc2)c1 | inconclusive: 26.9 µM [inhibitor, single point] | –
CC(C)(C)c1ccc(OCC(=O)Nc2ccc(S(=O)(=O)Nc3ncccn3)cc2)cc1 | inconclusive: 13.5 µM [inhibitor, partial curve] | –
COc1cccc(C(=O)OCC(=O)c2c[nH]c3ccccc23)c1OC | active: 9.53 µM | –
COc1ccc(/C=N/NC(=O)c2ccc(-c3ccccc3)cc2)cc1O | inconclusive: 26.9 µM [inhibitor, partial curve] | –
CCN1CC(O)=C(c2nc3ccccc3s2)C1=N | inconclusive: 21.3 µM [inhibitor, single point] | –
O=C(NCCCC1CCCC1)C1CCC(=O)N(Cc2ccc(Cl)cc2)C1 (stereo unspecified) | – | inactive: 1.74%
Cc1cccc(OCc2nnc(SCC(=O)c3ccccc3)o2)c1 | inconclusive: 37.9 µM [inhibitor, partial curve, poor fit] | –
